Assay results from publication PMC3102746.
Results are given in words; binding and its absence hold for the method and conditions named. Binding seen in cells or lysates may run through a third protein. Some binding calls cover weakened binding; strength is not graded here. Sequences can lack the tags named with a protein.

T1: myc-SYCE3 (mouse) (UniProt B5KM66)
T1 sequence: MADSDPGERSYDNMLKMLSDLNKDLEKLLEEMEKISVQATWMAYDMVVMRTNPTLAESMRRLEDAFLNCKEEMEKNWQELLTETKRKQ

T2: EGFP-SYCE1 (UniProt Q9D495)
T2 sequence: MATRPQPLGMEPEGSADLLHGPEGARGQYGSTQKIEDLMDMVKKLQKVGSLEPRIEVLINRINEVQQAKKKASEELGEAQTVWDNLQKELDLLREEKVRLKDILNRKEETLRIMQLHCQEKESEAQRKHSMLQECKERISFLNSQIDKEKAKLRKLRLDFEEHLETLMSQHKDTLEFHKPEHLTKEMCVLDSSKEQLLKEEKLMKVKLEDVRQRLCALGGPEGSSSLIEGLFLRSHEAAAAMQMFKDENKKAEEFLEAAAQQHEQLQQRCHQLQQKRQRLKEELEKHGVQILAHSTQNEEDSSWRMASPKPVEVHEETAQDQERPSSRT

T3: EGFP-SYCE2 (UniProt Q505B8)
T3 sequence: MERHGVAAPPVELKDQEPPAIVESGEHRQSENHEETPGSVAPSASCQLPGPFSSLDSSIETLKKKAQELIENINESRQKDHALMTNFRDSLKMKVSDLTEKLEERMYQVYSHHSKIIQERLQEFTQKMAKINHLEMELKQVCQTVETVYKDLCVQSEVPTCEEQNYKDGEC

B1: EGFP-SYCE1 (protein, UniProt Q9D495 1-329)
chain: T2 sequence
B2: myc-SYCE3 (protein, UniProt B5KM66 1-88)
chain: T1 sequence
B3: EGFP-SYCE2 (protein, UniProt Q505B8 1-171)
chain: T3 sequence
B4: EGFP-SYCP1 820–997 (domain or fragment, UniProt Q03410 820-997)
chain: SLLESPEATSWKFDSKTTPSQNISRLSSSMDSGKSKDNRDSLRASAKSILSTTVTKEYTVKTPTKKSIYQRENKYLPTGGSNKKRKTVFEFDVNSDSSETTDLLSLVSEEDISNRIYNNNTPDSHLLVKTPKQTPLSLSTPASFTKFGSLKKMREDRWATIAKIDRKRRLKEAEKLFT
B5: Tex12-EGFP (protein, UniProt Q9CR81 1-123)
chain: MMANHLVKPDSRNCKRARELEPQVSDSPQVSSLGKSESSLSEASGLFYKEEALEKDLSDMSKEINLMLSTYAKILSERAAVDASYIDEIDGLFKEANIIENFLVQKREFLKQRFTVITNTLHK

Key:
[1] = biological target: T1, myc-SYCE3 (mouse); test: co-IP; COS-7 cells co-transfected with myc-SYCE3 and an EGFP fusion construct; immunoprecipitated overnight with anti-myc antibody (bait: myc-SYCE3), protein G dynabeads, Western blot
[2] = biological target: T2, EGFP-SYCE1; test: co-IP; reverse co-IP: COS-7 cells co-transfected with myc-SYCE3 and an EGFP fusion construct; immunoprecipitated overnight with anti-EGFP antibody (bait: EGFP fusion), protein G dynabeads, Western blot
[3] = biological target: T3, EGFP-SYCE2; test: as above

Row | Binder | binding [1] | binding [2] | binding [3]
1 | B1 | binds | – | –
2 | B2 | – | binds | binds
3 | B3 | binds | – | –
4 | B4 | no binding | – | –
5 | B5 | no binding | – | –
